One molecule from patent publication US9974865B2, “Antibody drug conjugates (ADC) that bind to FLT3 proteins” (AGENSYS, INC., priority 2015, dated 2018) can be followed below.

Entries after “also recorded” stand apart in the source; their conditions may differ.

One test addresses FLT3 recombinant protein (Homo sapiens, UniProt P36888). The test can be described thus: Binding to FLT3 recombinant protein by ELISA. To be noted: CHO-derived vs hybridoma-derived MAb. On the procedure: The CHv62.21 MAb secreted from recombinant cells is also evaluated for binding to FLT3 recombinant protein by ELISA.
(ELISA stands for enzyme-linked immunosorbent assay.)

Test [1] has as its system EOL-1 and SEM target cells. The test can be described thus: ADCC assay (CytoTox 96, LDH release) with human PBMC effector cells. It is filed as cell-based. The following applies: E:T=100:1, antibody 2.5 ug/mL, 4 hours. Here is the method: CHv62.21 and CHv62.21pAF was tested for ADCC activity in vitro. Briefly, the naked and ADC anti-FLT3 monoclonal antibodies, CHv62.21 and CHv62.21pAF were tested for their ability to mediate antibody dependent cytotoxicity activity (ADCC) using the target cell lines EOL-1 and SEM in the presence of the effector cells, normal human PBMCs using the CytoTox 96® Non-Radioactive Cytotoxicity Assay (Promega, G1780).
One (1) day prior to performing the assay, three (3) vials of the effector cells, normal human PBMC (Hemacare, Donor ID: 1888), were thawed, washed and plated into T-175 cell culture flasks in RPMI-1640 supplemented with 10% heat inactivated fetal bovine serum. The flasks were stored in an incubator at 37° C. […]
The test samples were each diluted to a final concentration of 2.5 ug/mL in assay buffer. […] The activity of lactate dehydrogenase in the supernatant was determined by using the colorimetric LDH Detection Kit; CytoTox 96® Non-Radioactive Cytotoxicity Assay (Promega) with absorbance readings taken at 490 nm.
The data was analyzed by first subtracting the average of absorbance values of the Culture Medium Background wells from all absorbance values of Experimental, Effector spontaneous, Target spontaneous and Target maximum wells. Next, the average of the corrected absorbance readings was normalized and ADCC activity was calculated by using the following formula: […]
For orientation: Release of lactate dehydrogenase indicates damage to the cell membrane.

For the next test, the system named is EOL-1 cells. Put plainly: EOL-1 growth with human FLT3 ligand and antibody (Cell Titer Glo, 5 days). It is filed as cell-based. The following applies: FLT3 ligand 50, 10 or 5 ng/mL, antibody 10, 1, 0.1 μg/mL. Here is the method:
The ability of FLT3 antibodies (CHv62.21 and v62-1b37.1) to mediate the effect of human FLT3 ligand was evaluated using the human leukemia EOL-1 cell line, which endogenously expresses FLT3. Isotype control antibody (mLys-1c3.1) was also used. […] The next day, cells were treated with 50, 10 or 5 ng/mL of human FLT3 ligand (in 25 μl of complete media) and 10, 1, 0.1 and 0 μg/mL of test antibody (in 25 μl of complete media). Media alone was used as the untreated control. […] At the end of the incubation period, 100 μl of Cell Titer Glo was added to each well and incubated for 30 minutes, shaking, at room temperature.
A general note: Cellular ATP, detected with luciferase, serves as a proxy for viable cell number.

B1: CHv62.21: FLT3 MAb, human IgG1/kappa, heavy chain SEQ ID NO: 9, light chain SEQ ID NO: 10, CHO cell ATCC PTA-121831 (antibody, listed as Homo sapiens)
heavy: EVQLVESGGGLVRPGGSLRLSCAASGFTFSGYSINWVRQAPGKGLEWVSSISSSSNYIYYADSVKGRFTISRDNAKNSLYLQMNSLRAEDTAVYYCAREGFIAGTTFDAFDIWGQGTMVTVSS[skipping human IgG1 constant region]
light: DIQMTQSPSSLSASVGDRVTITCRASQGIRNDLGWYQQKPGKAPKRLIYAASSLQSGVPSRFSGSGSGTEFTLTISSLQPEDFATYYCLQHNGFPYTFGQGTKLEIKRTVAAPSVFIFPPSDEQLKSGTASVVCLLNNFYPREAKVQWKVDNALQSGNSQESVTEQDSKDSTYSLSSTLTLSKADYEKHKVYACEVTHQGLSSPVTKSFNRGEC
modifications: CHv62.21 heavy chain; CHv62.21 light chain
Turning to B1, the “binding to FLT3 recombinant protein” value with FLT3 recombinant protein is “identical between MAb material derived from CHO and from hybridoma cells”. Moreover, in test [1], the ADCC activity result was “does not Mediate Antibody Dependent Cytotoxicity Activity; also recorded: do not show ADCC activity”. The “effect on growth in the presence of FLT3 ligand” value in the test with EOL-1 cells is listed as “Does not Interfere with FL Mediated Cell Proliferation; also recorded: does not have any effect on growth”.
